This is an account of results in the supplement of paper PMC4604168 (melanoma cell lines).

Common to all, as to test: cell count relative to DMSO control; melanoma cells; higher = more viable cells
Common to all, as to settings: library dose: standard library concentration; 72 h

In experiment [1] the test system is A101D.
The test system of experiment [2] is A2058.
The test system of experiment [3] is A375.
For experiment [4], the system named is 501Mel.

The other results are listed elsewhere or left out. Many values rest on one well or one pass, so single values are uncertain.
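Further: cells treated in 1,536-well plates, then fixed and DAPI-stained, with nuclei counted from automated high-throughput microscope images.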

Regarding `CCCCCCCCc1ccc(CCC(N)(CO)CO)cc1` [fingolimod] + C[C@]1(c2nc3c(C(N)=O)cccc3[nH]2)CCCN1 [Veliparib] (first compound 10 µM, partner dose 7 µM), the cell count in experiment [1] was 17.2%; in experiment [2], 6.47%; in experiment [3], 76.5%.

With `CCCCCCCCc1ccc(CCC(N)(CO)CO)cc1` [fingolimod] + Cc1cc(Nc2cc(N3CCN(C)CC3)nc(/C=C/c3ccccc3)n2)n[nH]1 [ENMD2076] (first compound 10 µM, partner dose 0.2 µM), the results for the cell count in experiment [1], in experiment [2] and in experiment [3] were 13.6%, 10.4% and 79.2%, respectively.

Regarding `Cc1ccc(NC(=O)c2cccc(N(C)C)c2)cc1NC(=O)c1ccc(O)cc1` + c1cc(-c2cnn3cc(-c4ccc(OCCN5CCCCC5)cc4)cnc23)ccn1 [Dorsomorphin] (first compound 10 µM, partner dose 2 µM), the cell count in experiment [4] amounted to 43.5%; in experiment [1], 79.2%; in experiment [2], 95.4%; in experiment [3] it was 71.6%.

On to `Cc1ccc(NC(=O)c2cccc(N(C)C)c2)cc1NC(=O)c1ccc(O)cc1` + NCC(=O)Nc1ccc(-n2nc(C(F)(F)F)cc2-c2ccc3c(ccc4ccccc43)c2)cc1 [OSU03012] (first compound 10 µM, partner dose 5 µM), for which the cell count in experiment [1] worked out at 82.7%; in experiment [2], 93.2%; in experiment [3], 37.7%.

Regarding `CCCCCCCCc1ccc(CCC(N)(CO)CO)cc1` [fingolimod] + CC(=O)O[C@@]12CO[C@@H]1C[C@H](O)[C@@]1(C)C(=O)[C@H](O)C3=C(C)[C@@H](OC(=O)[C@H](O)[C@@H](NC(=O)OC(C)(C)C)c4ccccc4)C[C@@](O)([C@@H](OC(=O)c4ccccc4)[C@H]21)C3(C)C [Docetaxel] (first compound 10 µM, partner dose 0.0005 µM), the cell count in experiment [1] stood at 13.4%; in experiment [2], 6.29%; in experiment [3] it was 68%.

For `CCCCCCCCc1ccc(CCC(N)(CO)CO)cc1` [fingolimod] + Nc1cccc2c1CN(C1CCC(=O)NC1=O)C2=O [lenalidomide] (first compound 10 µM, partner dose 5 µM), the cell count in experiment [1] is 8.62%; in experiment [2], 7.07%; in experiment [3] it was 105%.

For `NC(=O)c1ccc(N(C(N)=O)c2c(F)cccc2F)nc1-c1ccc(F)cc1F` + CCN(CC)CCNC(=O)c1c(C)[nH]c(/C=C2\C(=O)Nc3ccc(F)cc32)c1C [sunitinib] (first compound 2 µM, partner dose 2 µM), the cell count is 67.9% in experiment [1], 68.1% in experiment [2] and 89.7% in experiment [3].

Regarding `CCCCCCCCc1ccc(CCC(N)(CO)CO)cc1` [fingolimod] + C=CCNC1=C2C[C@@H](C)C[C@H](OC)[C@H](O)[C@@H](C)/C=C(\C)[C@H](OC(N)=O)[C@@H](OC)/C=C\C=C(/C)C(=O)NC(=CC1=O)C2=O [Tanespimycin] (first compound 10 µM, partner dose 0.01 µM), the cell count in experiment [1] turned out to be 7.82%; in experiment [2] it was 8%; in experiment [3], 44.1%.

With `Cc1ccc(NC(=O)c2cccc(N(C)C)c2)cc1NC(=O)c1ccc(O)cc1` + Cn1cc(/C=C2\C(=O)Nc3cccnc32)c2ccccc21 [GW441756] (first compound 10 µM, partner dose 2 µM), the cell count in experiment [4] amounted to 75.8%; in experiment [1], 76.4%; in experiment [2], 105%; in experiment [3], 174%.

For `CCCCCCCCc1ccc(CCC(N)(CO)CO)cc1` [fingolimod] + O=C(O)[C@@H]1[O][Sb](=[O])([O][Sb]2(=[O])[O][C@H]([C@H](O)CO)[C@H](O)[C@H](C(=O)O)[O]2)[O][C@H]([C@H](O)CO)[C@@H]1O [stibogluconate] (first compound 10 µM, partner dose 10 µM), the results for the cell count in experiment [1], in experiment [2] and in experiment [3] were 17.8%, 23.9% and 90.1%, respectively.

As for `CC(C)(C)c1cnc(CSc2cnc(NC(=O)C3CCNCC3)s2)o1` + Oc1cc(-c2nc(-c3ccccc3)[nH]c2-c2ccncc2)ccc1Cl [L779450] (first compound 0.05 µM, partner dose 1 µM), the cell count stood at 57.7% in experiment [4], 68.1% in experiment [1], 93.7% in experiment [2] and 93.3% in experiment [3].

`CCCCCCCCc1ccc(CCC(N)(CO)CO)cc1` [fingolimod] + O=c1cc(-c2cccc3c2Sc2ccccc2S3)oc(N2CCOCC2)c1 [KU55933] (first compound 10 µM, partner dose 5 µM): the values for the cell count in experiment [1], in experiment [2] and in experiment [3] were 3.12%, 2.83% and 69.3%, respectively.

Consider `CCc1ccc(CCOc2ccc(CC3SC(=O)NC3=O)cc2)nc1` (centres undefined) [pioglitazone] + COc1ccc2c(c1)CCC1C2CCC2(C)C(NCCCCCCN3C(=O)C=CC3=O)CCC12 [U73122] (first compound 10 µM, partner dose 2 µM), for which the cell count came out at 99.9% in experiment [4], 54% in experiment [1], 55.4% in experiment [2] and 78.6% in experiment [3].

Turning to `NC(=O)c1ccc(N(C(N)=O)c2c(F)cccc2F)nc1-c1ccc(F)cc1F` + Cn1c(Nc2ccc(C(F)(F)F)cc2)nc2cc(Oc3ccnc(-c4ncc(C(F)(F)F)[nH]4)c3)ccc21 [CHIR265] (first compound 2 µM, partner dose 0.4 µM), the cell count worked out at 61% in experiment [1], 73.4% in experiment [2] and 95.4% in experiment [3].

As to `NC(=O)c1ccc(N(C(N)=O)c2c(F)cccc2F)nc1-c1ccc(F)cc1F` + CO[C@H]1C[C@@H]2CC[C@@H](C)[C@@](O)(O2)C(=O)C(=O)N2CCCC[C@H]2C(=O)O[C@H]([C@H](C)C[C@@H]2CC[C@@H](OCCO)[C@H](OC)C2)CC(=O)[C@H](C)/C=C(\C)[C@@H](O)[C@@H](OC)C(=O)[C@H](C)C[C@H](C)/C=C/C=C/C=C/1C [everolimus] (first compound 2 µM, partner dose 0.1 µM), the values for the cell count in experiment [1], in experiment [2] and in experiment [3] were 91.2%, 64.5% and 84.6%, respectively.

On to `CCc1ccc(CCOc2ccc(CC3SC(=O)NC3=O)cc2)nc1` (centres undefined) [pioglitazone] + COc1cc(N2CCC(N3CCN(C)CC3)CC2)ccc1Nc1ncc(Cl)c(Nc2ccccc2S(=O)(=O)C(C)C)n1 [NVP-TAE684] (first compound 10 µM, partner dose 0.4 µM), for which the cell count in experiment [4] was 97.7%; in experiment [1], 94.6%; in experiment [2] it was 78.4%; in experiment [3], 86.2%.

Take `CCCCCCCCc1ccc(CCC(N)(CO)CO)cc1` [fingolimod] + O=C(Nc1ccccc1)c1cc([N+](=O)[O-])ccc1Cl [GW9662] (first compound 10 µM, partner dose 10 µM): the cell count in experiment [4] stood at 0.329%; in experiment [1], 5.72%; in experiment [2] it was 1.93%; in experiment [3] it was 46.8%.

For the compound `NC(=O)c1ccc(N(C(N)=O)c2c(F)cccc2F)nc1-c1ccc(F)cc1F` + CO[C@@H]1[C@H](N(C)C(=O)c2ccccc2)C[C@H]2O[C@]1(C)n1c3ccccc3c3c4c(c5c6ccccc6n2c5c31)C(=O)NC4 [Midostaurin] (first compound 2 µM, partner dose 0.4 µM), the results for the cell count in experiment [1], in experiment [2] and in experiment [3] were 67%, 77.2% and 77%, respectively.

As to `CCc1ccc(CCOc2ccc(CC3SC(=O)NC3=O)cc2)nc1` (centres undefined) [pioglitazone] + Cc1cc([N+](=O)[O-])ccc1NS(=O)(=O)c1cc(Cl)ccc1Cl [FH535] (first compound 10 µM, partner dose 5 µM), the cell count in experiment [4] was 83%; in experiment [1], 69.9%; in experiment [2] it was 86.4%; in experiment [3] it was 80.1%.

For `NC(=O)c1ccc(N(C(N)=O)c2c(F)cccc2F)nc1-c1ccc(F)cc1F` + C[C@@H](Oc1cc(-c2cnn(C3CCNCC3)c2)cnc1N)c1c(Cl)ccc(F)c1Cl [Crizotinib] (first compound 2 µM, partner dose 1 µM), the cell count in experiment [1] turned out to be 89.8%; in experiment [2], 95.2%; in experiment [3], 111%.

As to `Cc1ccc(NC(=O)c2cccc(N(C)C)c2)cc1NC(=O)c1ccc(O)cc1` + COc1cc2ncnc(Nc3ccc(Oc4ccccc4)cc3)c2cc1OC [SrcI1] (first compound 10 µM, partner dose 10 µM), the cell count in experiment [4] came out at 61.6%; in experiment [1], 65.3%; in experiment [2], 87.4%; in experiment [3], 133%.

Take `CCCCCCCCc1ccc(CCC(N)(CO)CO)cc1` [fingolimod] + CN(c1ncccc1CNc1nc(Nc2ccc3c(c2)CC(=O)N3)ncc1C(F)(F)F)S(C)(=O)=O [PF562271] (first compound 10 µM, partner dose 0.4 µM): the cell count amounted to 5.42% in experiment [1], 3.59% in experiment [2] and 60.5% in experiment [3].

As to `CCCCCCCCc1ccc(CCC(N)(CO)CO)cc1` [fingolimod] + COc1cc(Nc2ncc(F)c(Nc3ccc4c(n3)NC(=O)C(C)(C)O4)n2)cc(OC)c1OC [Tamatinib] (first compound 10 µM, partner dose 2 µM), the cell count amounted to 2.12% in experiment [1], 2.16% in experiment [2] and 42.6% in experiment [3].

On to `CCCCCCCCc1ccc(CCC(N)(CO)CO)cc1` [fingolimod] + OCc1c[nH]c2ccccc12 [Indole-3-carbinol] (first compound 10 µM, partner dose 4 µM), for which the cell count turned out to be 4.3% in experiment [1], 4.78% in experiment [2] and 31.8% in experiment [3].

As for `CCCCCCCCc1ccc(CCC(N)(CO)CO)cc1` [fingolimod] + C#Cc1cccc(Nc2ncnc3cc(OCCOC)c(OCCOC)cc23)c1 [erlotinib] (first compound 10 µM, partner dose 4 µM), the cell count in experiment [1] amounted to 3.75%; in experiment [2] it was 7.93%; in experiment [3], 35.2%.

Regarding `Cc1ccc(NC(=O)c2cccc(N(C)C)c2)cc1NC(=O)c1ccc(O)cc1` + CN(NC(=O)CC(=O)NN(C)C(=S)c1ccccc1)C(=S)c1ccccc1 [STA4783] (first compound 10 µM, partner dose 0.03 µM), the figures for the cell count in experiment [1], in experiment [2] and in experiment [3] were 29.3%, 10.6% and 110%, respectively.

On to `NC(=O)c1ccc(N(C(N)=O)c2c(F)cccc2F)nc1-c1ccc(F)cc1F` + CCCCCCCCc1ccc(CCC(N)(CO)CO)cc1 [fingolimod] (first compound 2 µM, partner dose 10 µM), for which the cell count was 8.49% in experiment [1], 5.03% in experiment [2] and 35.8% in experiment [3].

Regarding `Cc1ccc(NC(=O)c2cccc(N(C)C)c2)cc1NC(=O)c1ccc(O)cc1` + NC(=O)Nc1cc(-c2cccc(F)c2)sc1C(=O)N[C@H]1CCCNC1 [AZD7762] (first compound 10 µM, partner dose 0.1 µM), the cell count in experiment [1] came out at 55.4%; in experiment [2], 69.7%; in experiment [3], 44%.

As to `NC(=O)c1ccc(N(C(N)=O)c2c(F)cccc2F)nc1-c1ccc(F)cc1F` + CC(C)(C)c1cnc(CSc2cnc(NC(=O)C3CCNCC3)s2)o1 [SNS-032] (first compound 2 µM, partner dose 0.05 µM), the cell count in experiment [1] amounted to 77.2%; in experiment [2] it was 97.5%; in experiment [3] it was 83.5%.

On to `CC(C)(C)c1cnc(CSc2cnc(NC(=O)C3CCNCC3)s2)o1` + O=C(O)c1ccc(-c2c[nH]c3ncc(-c4ccccc4)cc23)cc1C1CCCC1 [GSK650394] (first compound 0.05 µM, partner dose 0.8 µM), for which the cell count in experiment [1] stood at 102%; in experiment [2] it was 81.1%; in experiment [3] it was 77.5%.

Consider `CN(NC(=O)CC(=O)NN(C)C(=S)c1ccccc1)C(=S)c1ccccc1` + N#Cc1c(O)c2c(-c3ccc(-c4ccccc4O)cc3)csc2[nH]c1=O [A769662] (first compound 0.03 µM, partner dose 10 µM), for which the cell count is 42.2% in experiment [1], 19.7% in experiment [2] and 131% in experiment [3].

`NC(=O)c1ccc(N(C(N)=O)c2c(F)cccc2F)nc1-c1ccc(F)cc1F` + CCc1ccc(CCOc2ccc(CC3SC(=O)NC3=O)cc2)nc1 [pioglitazone] (first compound 2 µM, partner dose 10 µM): the cell count in experiment [1] was determined as 89.5%; in experiment [2], 111%; in experiment [3], 116%.
